Measurements: PubChem BioAssay AID493208 (National Center for Advancing Translational Sciences (NCATS), 2011)
Hit rate of the full screen: of about 44,000 compounds, about 340 (0.77%) were called active. Not shown: some 5% with an inconclusive outcome. Calls follow the shape of the dose curve; as a rule, active = well fitted inhibition curve with a large enough effect; inconclusive = small, poorly fitted or top-dose-only effect; inactive = flat fitted curve, though single readings scatter. The list shows a part of the results.

Experiment: Acumen qHTS Assay for Inhibitors of the mTORC1 Signaling Pathway in MEF (Tsc2-/-, p53-/-) Cells: Sytravon;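 also: plate controls were DMSO for no effect and rapamycin for full effect; nearly all actives have a fitted effect of over 50% in size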
Conditions: phospho-rpS6 immunofluorescence/PI, 24 h; series mostly up to 38.3 µM; activity change, negative = inhibition: at the top concentration
In short: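 Plate MEFs (Tsc2-/-, p53-/-, empty vector) in DMEM/10% FBS; after 24 h add compound, incubate 24 h at 37 degree Celsius; fix in PFA/TX-100, block, stain phospho-rpS6 and 10 uM PI; scan at 488 nm; report % positive cells.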

Activity change, negative = inhibition, inactive:
COc1ccc(C(=O)Nc2ccccc2-c2nc3ccccc3s2)c(OC)c1 -14.7%
CCOc1cc(C2Sc3ccccc3NC3=C2C(=O)c2ccccc23)ccc1O (stereo not drawn) -1.08%
CCOC(=O)c1cnc2ccc(Cl)cc2c1Nc1ccc(OCC)cc1 -19.4%
CC(C)OCCCNC(=O)CSc1c2c(nc3ccc(Cl)cc13)CCCC2 -10.2%
COc1cccc(-c2nc3c(c(SCC(=O)Nc4cc(C)ccc4C)n2)Cc2c(CO)cnc(C)c2O3)c1 -6.33%
CC(=O)c1ccc(NC(=O)CCc2nc(-c3ccc(C)cc3)no2)cc1 2.89%
CC(=O)c1ccc(NC(=O)CSc2nc(C3CCCC3)nc3c2c(=O)n(C)c(=O)n3C)cc1 3.79%
Cc1nc(-n2nc(C)c(CCC(C)C)c2C)sc1C(=O)Nc1ccc(Br)cc1 1.58%
COc1ccc(CCNC(=O)CCCn2c(SCC(N)=O)nc3cc4c(cc3c2=O)OCO4)cc1OC -0.307%
COc1ccc(CNC(=O)C2=C(C)C(=O)OC23CCN(C(C)=O)CC3)cc1 0.721%
CSc1ccc(CNC(=O)CCc2c(C)nn(-c3ccc(N4CCCC4)nn3)c2C)cc1 3.11%
CC1CCN(c2oc(-c3ccc(COc4ccc(Cl)cc4)o3)nc2C#N)CC1 -5.91%
CCCCOc1ccccc1C(=O)Nc1onc2c1CCCC2 -5.84%
CCOc1ccccc1CNC(=O)c1ccc(Cn2c(SCc3ccccc3)nc3cccnc32)cc1 -12.9%
Cc1cc(C)c2nc(NC(=O)c3ccc(S(=O)(=O)N4CCC(C)CC4)cc3)sc2c1 3.18%
Fc1ccc(N2CCN(Cc3cccn3-c3nnc(N4CCN(C5CCCCC5)CC4)s3)CC2)cc1 0%
Cc1ccc(NC(=O)C2CCCN(c3cnccn3)C2)c(C)c1 (stereo not drawn) 0.826%
CCc1ccccc1NC(=O)c1cc2c(Cl)nc3ccccc3c2s1 -0.776%
Cc1cccc(C)c1NC(=O)CCS(=O)(=O)c1cccc2nonc12 12.8%
Cc1c(NC(=O)c2ccc(Br)o2)cccc1-c1nc2ccccc2o1 9.43%
CCOC(=O)c1ccc(NC2=CC(c3ccc(F)cc3)N(c3ccc(C(=O)OCC)cc3)C2=O)cc1 (stereo not drawn) 1.91%
CCOc1ccccc1NC(=O)c1cc2c(=O)n(Cc3cccnc3)ccc2nc1C -0.233%
CCCOc1cccc(C(=O)Nc2ccc(-c3cc4ccccc4oc3=O)c(C)c2)c1 8.73%
CCCSc1nc2sc3c(c2c(=O)n1-c1cccc(Br)c1)CC(C)(C)OC3 -9.63%
Cc1ccccc1Cn1c(SCc2ccc(C(=O)NC3CCCC3)cc2)nc2ccncc21 -0.246%
CCOC(=O)c1c(C)[nH]c(C)c1S(=O)(=O)N1CCC(C(=O)Nc2ccc(C)c(Cl)c2)CC1 -4.98%
CC(=O)Nc1ccc(Nc2ncnc3c2c(-c2ccccc2)cn3-c2ccc(C)c(Cl)c2)cc1 3.93%
COc1ccccc1N=c1scc(-c2ccc(S(=O)(=O)N3CCCC3)cc2)n1C -20%
Cc1nc2c(c(C)nn2-c2ccccc2)c(C)c1CCC(=O)NCCc1ccc(Cl)cc1 3.24%
COc1cccc(NC(=O)N2CCN(C(=O)c3nsc4ccccc34)CC2)c1 -4.52%
COc1ccccc1CNC(=O)CCNS(=O)(=O)c1cccc2nsnc12 -24.1%
COc1ccc(NC(=O)N2CCN3CCCCC3C2)cc1OC (stereo not drawn) 0.368%
Cc1ccc(Cn2ccn(Cc3cccc(C(F)(F)F)c3)c(=O)c2=O)cc1 -1.19%
COc1cccc(NC(=O)CSc2nc3c([nH]c4ccccc43)c(=O)n2-c2cccc(Cl)c2)c1 -15.6%
Cc1ccc(-c2ccc(=O)n(CC(=O)Nc3ccc(C(C)C)cc3)n2)cc1 -9.15%
CCOC(=O)c1ccc(NC(=O)CSc2nc(C)c(Cc3ccccc3)c(=O)[nH]2)cc1 0.524%
C=CCOc1ccc(C2c3c(oc4ccc(C)cc4c3=O)C(=O)N2CCCN2CCOCC2)cc1 (stereo not drawn) 4.28%
COCCNC(=O)CCn1c(=O)c2cc(OC)c(OC)cc2n(CC(=O)Nc2ccccc2OC)c1=O -6.06%
COc1ccccc1NC(=O)c1c(C)cc(C)nc1SCC(=O)Nc1cccc(C)c1 0%
CCc1cccc(CC)c1N(COC)C(=O)Cn1c(C)nc2ccccc21 -0.507%
CCN(CC)CCOC(=O)c1ccc(NC(=O)CSc2cc(=O)n(CC)c3ccccc23)cc1 -1.38%
Cc1ccc(-n2nc(C)c3c(C)cc(=O)n(CC(=O)NC(C)C)c32)cc1 -4.49%
O=C(Nc1ccc(F)c(Cl)c1)C1Cc2ccccc2CN1S(=O)(=O)c1ccc(F)cc1 (stereo not drawn) -20.1%
CCc1nn(CC(=O)Nc2ccc(C)cc2C)c(=O)c2cc3sccc3n12 0.558%
Cc1ccc(NC(=O)c2cn(-c3ccccc3)nc2-c2ccccc2)cc1 -9.48%
CCCCn1c(SCC(=O)Nc2cccc(OC)c2)nc2ccsc2c1=O -3.88%
COc1cc(OC)c(NC(=O)c2cnn(-c3cccc(Cl)c3C)c2C2CCN(C(=O)OC(C)(C)C)CC2)cc1Cl 2.13%
COc1ccc(-n2cc(-c3ccccc3)c3c(NCc4cccc(Cl)c4)ncnc32)cc1 -1.98%
